# Laboratory results published in ChEMBL document CHEMBL4888484, “Replenishing the malaria drug discovery pipeline: Screening and hit evaluation of the MMV Hit Generation Library 1 (HGL1) against asexual blood stage Plasmodium falciparum ,using a nano luciferase reporter read-out” (2022).
# In all, about 150,000 compounds went through this assay and about 540 (0.36%) showed an effect of 50% or more. The list shows a part of the results.
# Test system: Plasmodium falciparum
# Experiment: Primary screen in NF54 nanoGlo assay, in single point, at 2uM, 72h; a lower Z score goes with more inhibition
# Type: functional, Erythrocyte
# Details: timepoint 72 hour
Compound,% Inhibition [%],Z score
COc1ccccc1CC(=O)Nc1cc(N2CCCC2=O)ccc1Cl,-12,1.51
OC[C@@H]1COCCN(Cc2ccc3ccn(Cc4ccccc4)c3c2)C1,-7,1.06
O=S(=O)(c1ccc(Cl)cc1)N1CCC2(CC1)NCCN=C2NCc1ccc2c(c1)OCO2,-17,2.19
COCCN1C(C)CN(C(=O)CN(C)C2CC2)CC1C (centres undefined),-6,0.81
COc1ccc(CC2(C(=O)O)CCN(Cc3cccnc3)CC2)cc1,13,-1.82
CCn1cc2c(n1)c(=O)n(Cc1ccc(C)cc1)c(=O)n2CC(=O)Nc1ccc(C)c(C)c1,-2,0.24
CC1(C)CC(=O)C2(Cc3ccc(Cl)cc3N3CCC(c4ccccc4)CC32)C(=O)C1 (centres undefined),1,-0.14
Cc1ccc(-c2nc(CN3CCCC3)n(CCO)n2)o1,-14,1.55
COCC(=O)N1CCc2cc3ccc2[C@@H]1c1cccc(c1)OCCCNC(=O)c1cc(ccc1O)O3,-2,0.47
Cc1ccc(NC2CCN(CCN3CCOCC3)CC2)cc1C,-9,0.78
CC(C)c1noc(OCc2ccnc(N(C)C)c2)n1,0,-0.01
O=C(CN1CCCCC1)Nc1nnc(C2CC2)s1,-12,2.01
CCN1CCN(S(=O)(=O)c2cc3c(cc2Cl)N(Cc2noc(C)n2)C(=O)CO3)CC1,2,-0.23
Cc1c(CN(C)Cc2nccn2C2CC2)[nH]c2ccccc12,-10,1.97
CN(Cc1ccccc1)c1nc(-c2ccccc2)ncc1C(=O)NC1CC1,-6,0.85
Cc1nc[nH]c1CN1C[C@H]2CC[C@@H](C1)N(Cc1ccc3nsnc3c1)C2,-7,1.39
CCc1nc(N2CCCN(C(=O)c3ccc(C)cc3)CC2)c2c(C)nn(-c3ccccc3C)c2n1,10,-1.22
O=C(CCc1ccccc1Cl)N[C@H]1CC12CCOCC2,-5,0.73
Cn1cc([C@@H]2CCCN2Cc2nnnn2C2CC2)cn1,8,-1.1
CN1CCN(C(=O)[C@@H]2CCN(c3ccccc3)C2=O)CC1=O,-7,1.33
CCc1cc(CNc2nncc(-c3ccc(C4CCCCC4)cc3)n2)on1,3,-0.37

Compound,% Inhibition [%],Z score
CCOc1cc(CN(C)Cc2[nH]nc3c2CCC3)cc(Cl)c1OCC,-1,0.26
CCC(C)C(C)NC(=O)CCc1nc2c([nH]1)c(=O)[nH]c(=O)n2C (centres undefined),-11,1.22
CCOC(=O)N1CCN(C(=O)[C@H](C)NC(=O)c2cc3ccccc3o2)CC1,-5,0.58
CC(C)N1CCN(C(=O)c2cccc3cnccc23)CC1,-6,0.9
O=C(CN1CN(c2ccccc2)C2(CCN(C(=O)c3cccc4ccccc34)CC2)C1=O)NCc1ccco1,-16,2.56
Cc1nnc([C@H](C)N2CCc3c(Br)ccc(F)c3C2)o1,1,-0.14
C#CCN(CC=C)C(=O)c1ccc([C@H](C)N2CCCCC2)o1,-10,1.92
COc1ccc(NC(=O)[C@H](C)n2nc3c(cc2=O)CCC3)c(C)c1,7,-0.89
COc1cc(C(=O)NC[C@@H](c2ccc3c(c2)OCO3)N2CCN(C)CC2)cc(OC)c1OC,-12,2.21
Cc1cc(NC(=O)N[C@@]2(C)CCOC2)n(Cc2ccccn2)n1,-15,1.3
CC(C)c1nc(C2CCN(C(=O)[C@@H]3COCCN3CC(F)F)CC2)no1,4,-0.75
CCn1ccnc1CNC(=O)NCC1CCc2ccccc2CC1,-7,1.12
CCN1CCN(C(=O)Nc2ccc(C3CCC3)cn2)CC1=O,5,-0.63
CCC[C@H](C)c1cn(CCc2cc(O)nc(C)n2)nn1,-12,1.92
Cn1cc(C(=O)O)c(C(=O)Nc2ccc(Nc3ccccc3)cc2)n1,-1,0.1
Cc1ccoc1C(=O)N(C)Cc1nnc[nH]1,-1,0.11
O=C(COc1ccc(Cl)cc1)Nc1nnc(-c2ccc3c(c2)OCO3)o1,-14,2.58
Cc1ccccc1[C@H]1C[C@H](NC(=O)Nc2nnn(C(C)C)n2)C1,4,-0.7
CCN(CC)CCn1c2ccccc2n2cc(-c3ccc(OC)c(OC)c3)nc12,0,-0.04
O=C(c1ccc2c(=O)n3c(nc2c1)CCCCCC3)N1CCC[C@H]1c1ccc2c(c1)OCCO2,-8,1.52
COC1C(C)C(NC(C)c2ccc(OCCN(C)C)cc2)C1(C)C (centres undefined),-9,1.26

Compound,% Inhibition [%],Z score
COCc1ccccc1Nc1ccccc1-c1noc(-c2ncccc2F)n1,-12,1.29
CCCCOCC(=O)N1C[C@@H]2CC[C@H]1CN(Cc1c(C)noc1C)C2,-4,0.48
O=C(Nc1snnc1-c1ccccc1)N1CCS(=O)(=O)CC1,-2,0.45
N[C@H]1CN(C(=O)Cc2ccc3cccnc3c2)CC12CCC2,-11,2.1
CCc1ccc(C(=O)NCCCC2CCCC2O)cc1S(=O)(=O)N1CCOCC1 (centres undefined),47,-7.15
O=C1C2C(c3ccccc3)C=CC(c3ccccc3)C2C(=O)N1C1CCCCC1 (centres undefined),-2,0.3
CCCn1nc(C(=O)O)c2c1CC[C@H](N1CCC(OC)CC1)C2,-9,1.05
C=C(C)[C@H]1OCC[C@H]1C(=O)N1CC[S+]([O-])CC(C)C1 (some centres undefined),-7,0.7
Cc1cnn(CCNCC(=O)N2CCC[C@H]2c2ccsc2)c1,7,-0.85
Cc1cc(N2CCN(c3nc(C)cc(C#N)n3)CC2)nc(C(C)C)n1,6,-0.85
Cn1cc2c(n1)c(=O)n(Cc1ccc(F)cc1)c1nn(Cc3ccc(Cl)cc3)c(=O)n21,-11,1.45
CCCNC(=O)N(CCN1CCOCC1)CC(=O)N1N=C(c2ccc(F)cc2)C[C@H]1c1ccccc1F,-10,0.98
Cc1ccc(C2CCCCCN2C(=O)NC2CC(=O)N(C3CC3)C2)o1 (centres undefined),-4,0.52
Cc1ccc(NC(=O)N[C@@H](C)CC#N)s1,-16,1.82
CO[C@H]1CN(C2CCN(Cc3ccc(F)cc3F)CC2)[C@H]1c1cccnc1,-11,1.24
Cc1ccc(C(=O)N[C@H]2CCCN(C(=O)C(C)C)C2)n1C(F)F,-3,0.55
CC1C(=O)CCN(C)C1c1ccccc1 (centres undefined),2,-0.35
CC(C)COc1ccccc1[C@H]1CC(=O)Nc2c(S(=O)(=O)c3ccccc3)csc21,-1,0.15
O=C(CC1c2ccccc2CCc2ccccc21)NCCN1CCCCC1=O,9,-1.36
COC[C@H]1CCN(Cc2[nH]c3ccc(Cl)cc3c2C)C1,0,-0.03
CCNC(=O)Cn1ccc(-c2cccc(-c3nccc4ccccc34)c2)n1,-12,1.42

Compound,% Inhibition [%],Z score
c1ccc(C(c2ccccc2)c2n[nH]c3c2CN(CCCn2ccnc2)CC3)cc1,0,0.02
C[C@@H](c1ccc(Cl)cc1Cl)N(C)S(=O)(=O)CC1CCOCC1,-12,1.18
O=C(NCC1(CO)CC2(CCC2)C1)[C@H]1CCc2nncn2C1,31,-3.48
COCCNC(=O)C[C@H](CCc1ccccc1)c1c[nH]c2ccc(Cl)cc12,-1,0.14
CCC1CN(C(=O)Nc2cnn(C)c2)CCC1c1ccccc1 (centres undefined),-10,1.04
CS(=O)(=O)N1CCCN(C(=O)NCCc2ccccc2)CCNC(=O)C[C@H]1c1ccccc1,-6,1.14
CN1CCN(C(=O)N2CC[C@H](Oc3cnc4ccccc4n3)C2)CC1,-1,0.21
CC(=O)NCC(=O)Nc1nccc2sccc12,1,-0.08
Cc1ccnc(NC(=O)[C@@H]2CCCc3ccccc32)n1,-9,1.31
CC1(C(=O)O)CCC(C(=O)Nc2ccc(Nc3ccccc3)cc2)C1(C)C (centres undefined),-5,0.94
COc1ccc(C2CC(=O)N(Cc3ccccc3)C(=O)C2)cc1OC,-1,0.25
COc1ccc(N(C)S(=O)(=O)c2c(-c3ccccc3)csc2C(=O)Nc2cccc(C)c2)cc1,-14,1.89
COc1ccc(CCC(=O)N2CCC3(CC2)C[C@@H](CCOCC2CC2)CCO3)cc1,-9,1.72
CC1CCN(Cc2nnnn2CCCC(=O)N2CCC(c3ccccc3)CC2)CC1,-8,1.05
CC(C)Oc1ccc(S(=O)(=O)N[C@H]2CCCS(=O)(=O)C2)cn1,-2,0.21
O=C(Nc1nnc(-c2ccccc2)o1)[C@@H]1COc2ccccc2O1,-10,1.74
CC1(c2ccccc2)COC2(OC1)C(=O)N(CN1CCOCC1)c1ccccc12 (centres undefined),-1,0.26
Cc1nc(-c2noc(-c3cccc(F)c3)n2)cn1CC(=O)Nc1ccc(F)cc1,-4,0.47
CCc1nnc(C(=O)N(CC)CC(CC)CC)s1,-7,0.98
